Experimental data published in publication PMC4534575, “The RNA Helicase DHX34 Activates NMD by Promoting a Transition from the Surveillance to the Decay-Inducing Complex” (Cell Reports, 2014).
Results are given in words; binding and its absence hold for the method and conditions named. Binding seen in cells or lysates may run through a third protein. Some results given as binding are weak or reduced against the parent protein; the word gives no strength. Tags and fused reporters may be left off the sequences shown.

Protein sequences, listed by entry. Tags and fused reporters are not part of them.
UniProt Q8IZH2: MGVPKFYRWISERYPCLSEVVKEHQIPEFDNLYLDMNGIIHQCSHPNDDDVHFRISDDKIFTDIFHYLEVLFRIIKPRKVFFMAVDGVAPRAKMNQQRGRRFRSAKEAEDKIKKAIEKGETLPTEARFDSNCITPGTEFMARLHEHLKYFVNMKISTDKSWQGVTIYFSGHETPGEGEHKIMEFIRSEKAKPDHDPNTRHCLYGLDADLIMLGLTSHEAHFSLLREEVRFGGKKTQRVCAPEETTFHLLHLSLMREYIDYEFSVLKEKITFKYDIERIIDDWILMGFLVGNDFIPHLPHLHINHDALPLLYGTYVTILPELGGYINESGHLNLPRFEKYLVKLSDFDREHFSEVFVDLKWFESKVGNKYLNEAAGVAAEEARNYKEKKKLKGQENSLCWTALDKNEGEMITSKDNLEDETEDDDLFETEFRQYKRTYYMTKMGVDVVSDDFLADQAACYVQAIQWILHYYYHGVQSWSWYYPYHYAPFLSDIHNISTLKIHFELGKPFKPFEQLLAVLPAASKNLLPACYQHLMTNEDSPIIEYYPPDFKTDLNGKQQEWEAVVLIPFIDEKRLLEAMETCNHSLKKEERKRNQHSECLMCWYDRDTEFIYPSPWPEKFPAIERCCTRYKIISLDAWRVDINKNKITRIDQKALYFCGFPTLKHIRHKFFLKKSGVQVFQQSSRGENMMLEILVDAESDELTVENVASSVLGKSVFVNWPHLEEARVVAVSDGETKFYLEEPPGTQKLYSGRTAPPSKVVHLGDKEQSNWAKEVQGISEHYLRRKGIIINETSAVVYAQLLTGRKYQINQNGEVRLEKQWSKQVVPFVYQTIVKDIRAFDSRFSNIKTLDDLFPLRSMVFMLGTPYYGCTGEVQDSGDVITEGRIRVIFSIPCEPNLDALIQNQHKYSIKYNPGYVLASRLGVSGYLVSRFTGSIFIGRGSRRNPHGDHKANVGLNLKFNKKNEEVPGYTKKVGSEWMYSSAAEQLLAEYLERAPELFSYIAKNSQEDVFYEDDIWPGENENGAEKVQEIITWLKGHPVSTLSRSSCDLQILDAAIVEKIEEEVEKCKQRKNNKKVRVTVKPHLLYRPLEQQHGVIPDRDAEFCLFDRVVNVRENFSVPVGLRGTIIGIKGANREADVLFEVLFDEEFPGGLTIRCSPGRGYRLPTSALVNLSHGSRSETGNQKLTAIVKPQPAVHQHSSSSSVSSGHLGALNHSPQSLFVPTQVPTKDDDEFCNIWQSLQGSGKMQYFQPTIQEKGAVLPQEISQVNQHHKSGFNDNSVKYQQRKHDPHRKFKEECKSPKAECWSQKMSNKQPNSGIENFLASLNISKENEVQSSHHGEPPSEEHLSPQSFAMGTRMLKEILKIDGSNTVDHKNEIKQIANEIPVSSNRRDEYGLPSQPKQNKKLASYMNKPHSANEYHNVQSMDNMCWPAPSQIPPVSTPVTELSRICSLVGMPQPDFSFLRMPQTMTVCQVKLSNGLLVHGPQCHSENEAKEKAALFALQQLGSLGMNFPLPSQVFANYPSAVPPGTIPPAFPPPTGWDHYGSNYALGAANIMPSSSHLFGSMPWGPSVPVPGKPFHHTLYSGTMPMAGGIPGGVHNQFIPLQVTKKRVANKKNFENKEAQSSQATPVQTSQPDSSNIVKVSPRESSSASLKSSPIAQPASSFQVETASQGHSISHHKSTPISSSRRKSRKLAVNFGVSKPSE
UniProt Q86US8: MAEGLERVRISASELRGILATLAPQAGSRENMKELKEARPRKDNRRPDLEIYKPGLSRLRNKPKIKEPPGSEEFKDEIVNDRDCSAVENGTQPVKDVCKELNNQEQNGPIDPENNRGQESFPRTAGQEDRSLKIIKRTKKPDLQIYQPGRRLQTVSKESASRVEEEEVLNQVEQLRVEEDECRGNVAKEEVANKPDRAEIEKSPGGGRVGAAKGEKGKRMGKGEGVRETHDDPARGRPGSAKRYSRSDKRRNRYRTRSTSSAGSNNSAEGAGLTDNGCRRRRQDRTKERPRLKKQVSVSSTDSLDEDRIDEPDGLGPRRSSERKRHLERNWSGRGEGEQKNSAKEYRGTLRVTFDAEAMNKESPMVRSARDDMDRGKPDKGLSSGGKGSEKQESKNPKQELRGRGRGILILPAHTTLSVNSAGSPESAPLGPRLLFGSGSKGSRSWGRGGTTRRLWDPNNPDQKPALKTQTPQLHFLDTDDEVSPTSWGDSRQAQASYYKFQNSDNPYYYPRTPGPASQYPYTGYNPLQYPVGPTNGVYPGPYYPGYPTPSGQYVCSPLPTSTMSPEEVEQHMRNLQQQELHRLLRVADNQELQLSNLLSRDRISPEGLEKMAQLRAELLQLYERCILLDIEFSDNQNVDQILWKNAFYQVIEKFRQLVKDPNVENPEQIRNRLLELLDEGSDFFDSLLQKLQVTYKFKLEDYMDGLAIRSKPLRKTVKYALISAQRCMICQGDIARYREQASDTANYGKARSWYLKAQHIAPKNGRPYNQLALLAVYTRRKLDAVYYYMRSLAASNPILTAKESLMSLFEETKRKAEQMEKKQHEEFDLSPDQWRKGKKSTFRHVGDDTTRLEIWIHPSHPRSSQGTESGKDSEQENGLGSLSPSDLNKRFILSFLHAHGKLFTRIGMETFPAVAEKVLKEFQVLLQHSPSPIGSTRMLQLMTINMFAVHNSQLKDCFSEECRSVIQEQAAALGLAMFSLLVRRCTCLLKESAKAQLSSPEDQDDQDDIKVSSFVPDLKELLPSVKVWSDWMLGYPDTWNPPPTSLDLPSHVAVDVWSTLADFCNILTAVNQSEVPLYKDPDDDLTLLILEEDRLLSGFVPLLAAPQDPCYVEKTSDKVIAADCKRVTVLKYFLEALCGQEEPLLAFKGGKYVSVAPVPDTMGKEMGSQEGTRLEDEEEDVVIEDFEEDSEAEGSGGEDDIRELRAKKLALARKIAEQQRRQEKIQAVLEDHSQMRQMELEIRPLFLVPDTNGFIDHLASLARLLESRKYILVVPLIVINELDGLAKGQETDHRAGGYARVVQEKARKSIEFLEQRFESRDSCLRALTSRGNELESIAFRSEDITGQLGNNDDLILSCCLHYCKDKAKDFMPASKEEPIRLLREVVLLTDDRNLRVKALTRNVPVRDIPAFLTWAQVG
UniProt P11940: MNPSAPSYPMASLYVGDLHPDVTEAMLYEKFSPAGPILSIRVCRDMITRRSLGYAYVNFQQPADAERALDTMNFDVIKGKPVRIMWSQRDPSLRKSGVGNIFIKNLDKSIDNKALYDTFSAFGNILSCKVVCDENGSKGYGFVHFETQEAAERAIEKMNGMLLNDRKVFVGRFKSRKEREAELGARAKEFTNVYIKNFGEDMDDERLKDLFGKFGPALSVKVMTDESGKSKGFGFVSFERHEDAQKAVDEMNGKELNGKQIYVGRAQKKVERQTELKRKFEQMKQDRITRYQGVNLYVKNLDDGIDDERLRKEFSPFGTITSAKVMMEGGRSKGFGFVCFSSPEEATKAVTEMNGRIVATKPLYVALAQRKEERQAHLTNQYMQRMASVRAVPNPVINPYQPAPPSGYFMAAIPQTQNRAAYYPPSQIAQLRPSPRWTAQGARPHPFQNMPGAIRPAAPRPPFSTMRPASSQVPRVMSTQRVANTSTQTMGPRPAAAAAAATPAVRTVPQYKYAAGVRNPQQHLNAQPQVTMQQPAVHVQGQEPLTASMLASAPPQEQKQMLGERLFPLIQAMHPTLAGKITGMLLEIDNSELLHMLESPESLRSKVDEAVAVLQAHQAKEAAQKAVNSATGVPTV

T1: FLAG-DHX34 (human) (UniProt Q14147)
T1 sequence: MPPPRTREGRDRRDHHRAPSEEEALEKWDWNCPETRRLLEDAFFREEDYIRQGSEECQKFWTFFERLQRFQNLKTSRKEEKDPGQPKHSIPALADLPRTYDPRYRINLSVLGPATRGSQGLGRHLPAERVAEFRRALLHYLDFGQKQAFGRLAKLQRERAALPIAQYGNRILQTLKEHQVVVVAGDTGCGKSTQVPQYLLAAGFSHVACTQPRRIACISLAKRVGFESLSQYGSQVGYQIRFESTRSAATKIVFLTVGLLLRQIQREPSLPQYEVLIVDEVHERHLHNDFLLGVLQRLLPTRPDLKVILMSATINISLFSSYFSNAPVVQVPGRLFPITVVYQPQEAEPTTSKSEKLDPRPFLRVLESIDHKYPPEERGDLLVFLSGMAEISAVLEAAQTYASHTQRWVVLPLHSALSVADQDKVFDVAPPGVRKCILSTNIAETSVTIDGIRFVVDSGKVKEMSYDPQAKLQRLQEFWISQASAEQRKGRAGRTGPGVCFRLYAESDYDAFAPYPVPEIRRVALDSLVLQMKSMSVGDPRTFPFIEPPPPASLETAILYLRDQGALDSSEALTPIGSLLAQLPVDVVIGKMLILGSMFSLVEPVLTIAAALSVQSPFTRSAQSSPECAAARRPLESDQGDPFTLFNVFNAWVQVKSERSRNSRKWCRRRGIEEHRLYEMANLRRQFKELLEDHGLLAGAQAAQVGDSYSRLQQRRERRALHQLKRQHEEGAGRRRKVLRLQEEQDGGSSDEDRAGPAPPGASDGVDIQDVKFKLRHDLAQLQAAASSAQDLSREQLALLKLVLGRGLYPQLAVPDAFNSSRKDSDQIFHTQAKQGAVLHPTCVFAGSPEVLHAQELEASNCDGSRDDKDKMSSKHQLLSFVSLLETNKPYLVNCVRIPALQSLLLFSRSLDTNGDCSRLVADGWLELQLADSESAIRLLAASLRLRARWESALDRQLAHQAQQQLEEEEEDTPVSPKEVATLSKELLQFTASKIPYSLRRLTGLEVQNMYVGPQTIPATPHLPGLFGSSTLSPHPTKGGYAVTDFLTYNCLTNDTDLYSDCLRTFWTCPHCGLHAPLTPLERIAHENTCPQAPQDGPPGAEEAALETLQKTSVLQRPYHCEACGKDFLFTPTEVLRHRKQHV

T2: FLAG-UPF1 (wild-type) (human) (UniProt Q92900)
T2 sequence: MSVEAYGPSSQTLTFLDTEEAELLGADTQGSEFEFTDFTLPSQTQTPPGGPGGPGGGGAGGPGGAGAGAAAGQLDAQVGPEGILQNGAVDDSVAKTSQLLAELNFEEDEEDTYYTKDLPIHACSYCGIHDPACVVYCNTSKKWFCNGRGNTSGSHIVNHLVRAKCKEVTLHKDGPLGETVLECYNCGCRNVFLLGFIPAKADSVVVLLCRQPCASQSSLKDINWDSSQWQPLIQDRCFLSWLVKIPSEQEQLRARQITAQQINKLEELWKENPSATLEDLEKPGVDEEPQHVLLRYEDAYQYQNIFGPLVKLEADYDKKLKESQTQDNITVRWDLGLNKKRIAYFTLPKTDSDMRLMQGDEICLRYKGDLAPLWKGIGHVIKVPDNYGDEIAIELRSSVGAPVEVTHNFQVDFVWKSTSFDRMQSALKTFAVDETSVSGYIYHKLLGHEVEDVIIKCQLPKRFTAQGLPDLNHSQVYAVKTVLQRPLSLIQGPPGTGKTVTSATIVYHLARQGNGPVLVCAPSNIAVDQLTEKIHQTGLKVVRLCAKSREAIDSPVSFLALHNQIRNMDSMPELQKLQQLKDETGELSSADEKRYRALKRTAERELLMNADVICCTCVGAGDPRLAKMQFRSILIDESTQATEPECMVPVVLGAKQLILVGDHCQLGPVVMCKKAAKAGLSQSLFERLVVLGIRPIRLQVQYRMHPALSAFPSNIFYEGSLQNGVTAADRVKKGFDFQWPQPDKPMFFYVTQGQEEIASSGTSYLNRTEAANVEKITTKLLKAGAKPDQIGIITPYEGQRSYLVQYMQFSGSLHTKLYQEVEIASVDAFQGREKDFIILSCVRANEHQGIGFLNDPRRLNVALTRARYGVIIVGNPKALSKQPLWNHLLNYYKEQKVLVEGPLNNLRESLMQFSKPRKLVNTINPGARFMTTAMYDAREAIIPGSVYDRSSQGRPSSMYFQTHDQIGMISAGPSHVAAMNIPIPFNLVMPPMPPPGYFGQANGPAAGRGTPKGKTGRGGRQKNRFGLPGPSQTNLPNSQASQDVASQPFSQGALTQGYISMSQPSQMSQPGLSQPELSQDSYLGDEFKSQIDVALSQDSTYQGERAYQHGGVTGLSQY


Columns and labels:
[1] = target: T1, FLAG-DHX34 (human); assay: co-IP; anti-FLAG IP of transiently transfected FLAG-DHX34 from HEK293T lysate, in the absence or presence of RNase A; endogenous partners by western blot
[2] = target: T2, FLAG-UPF1 (wild-type) (human); assay: co-IP; anti-FLAG IP of transiently transfected FLAG-UPF1 (wild-type or mutants) from HEK293T lysate; endogenous partners by western blot; in the absence or presence of RNase A (Figures 2B, S2B); cells also depleted of DHX34 by shRNA, rescued with T7-DHX34, or cotransfected with T7-DHX34

Row | Molecule | binding [1] | binding [2]
1 | exonuclease XRN1 (from UniProt Q8IZH2 1-1706) | binds | –
2 | SMG6 (from UniProt Q86US8 1-1419) | binds | –
3 | UPF3a (protein, UniProt Q9H1J1 1-476) MRSEKEGAGGLRAAVAARGPSGREKLSALEVQFHRDSQQQEAETPPTSSSGCGGGAGKPREEKRTALSKVVIRRLPPGLTKEQLEEQLRPLPAHDYFEFFAADLSLYPHLYSRAYINFRNPDDILLFRDRFDGYIFLDSKGLEYPAVVEFAPFQKIAKKKLRKKDAKTGSIEDDPEYKKFLETYCVEEEKTSANPETLLGEMEAKTRELIARRTTPLLEYIKNRKLEKQRIREEKREERRRRELEKKRLREEEKRRRREEERCKKKETDKQKKIAEKEVRIKLLKKPEKGEEPTTEKPKERGEEIDTGGGKQESCAPGAVVKARPMEGSLEEPQETSHSGSDKEHRDVERSQEQESEAQRYHVDDGRRHRAHHEPERLSRRSEDEQRWGKGPGQDRGKKGSQDSGAPGEAMERLGRAQRCDDSPAPRKERLANKDRPALQLYDPGARFRARECGGNRRICKAEGSGTGPEKREEAE | binds | –

Next, values leading:

Row | binding [1] | binding [2] | Molecule
4 | no binding | – | poly (A) binding protein (PABP1) (from UniProt P11940 1-636)
5 | – | binds | endogenous DHX34 (protein, UniProt Q14147 1-1143) MPPPRTREGRDRRDHHRAPSEEEALEKWDWNCPETRRLLEDAFFREEDYIRQGSEECQKFWTFFERLQRFQNLKTSRKEEKDPGQPKHSIPALADLPRTYDPRYRINLSVLGPATRGSQGLGRHLPAERVAEFRRALLHYLDFGQKQAFGRLAKLQRERAALPIAQYGNRILQTLKEHQVVVVAGDTGCGKSTQVPQYLLAAGFSHVACTQPRRIACISLAKRVGFESLSQYGSQVGYQIRFESTRSAATKIVFLTVGLLLRQIQREPSLPQYEVLIVDEVHERHLHNDFLLGVLQRLLPTRPDLKVILMSATINISLFSSYFSNAPVVQVPGRLFPITVVYQPQEAEPTTSKSEKLDPRPFLRVLESIDHKYPPEERGDLLVFLSGMAEISAVLEAAQTYASHTQRWVVLPLHSALSVADQDKVFDVAPPGVRKCILSTNIAETSVTIDGIRFVVDSGKVKEMSYDPQAKLQRLQEFWISQASAEQRKGRAGRTGPGVCFRLYAESDYDAFAPYPVPEIRRVALDSLVLQMKSMSVGDPRTFPFIEPPPPASLETAILYLRDQGALDSSEALTPIGSLLAQLPVDVVIGKMLILGSMFSLVEPVLTIAAALSVQSPFTRSAQSSPECAAARRPLESDQGDPFTLFNVFNAWVQVKSERSRNSRKWCRRRGIEEHRLYEMANLRRQFKELLEDHGLLAGAQAAQVGDSYSRLQQRRERRALHQLKRQHEEGAGRRRKVLRLQEEQDGGSSDEDRAGPAPPGASDGVDIQDVKFKLRHDLAQLQAAASSAQDLSREQLALLKLVLGRGLYPQLAVPDAFNSSRKDSDQIFHTQAKQGAVLHPTCVFAGSPEVLHAQELEASNCDGSRDDKDKMSSKHQLLSFVSLLETNKPYLVNCVRIPALQSLLLFSRSLDTNGDCSRLVADGWLELQLADSESAIRLLAASLRLRARWESALDRQLAHQAQQQLEEEEEDTPVSPKEVATLSKELLQFTASKIPYSLRRLTGLEVQNMYVGPQTIPATPHLPGLFGSSTLSPHPTKGGYAVTDFLTYNCLTNDTDLYSDCLRTFWTCPHCGLHAPLTPLERIAHENTCPQAPQDGPPGAEEAALETLQKTSVLQRPYHCEACGKDFLFTPTEVLRHRKQHV
6 | binds | – | exosome component DIS3 (protein, UniProt Q9Y2L1 1-958) MLKSKTFLKKTRAGGVMKIVREHYLRDDIGCGAPGCAACGGAHEGPALEPQPQDPASSVCPQPHYLLPDTNVLLHQIDVLEDPAIRNVIVLQTVLQEVRNRSAPVYKRIRDVTNNQEKHFYTFTNEHHRETYVEQEQGENANDRNDRAIRVAAKWYNEHLKKMSADNQLQVIFITNDRRNKEKAIEEGIPAFTCEEYVKSLTANPELIDRLACLSEEGNEIESGKIIFSEHLPLSKLQQGIKSGTYLQGTFRASRENYLEATVWIHGDNEENKEIILQGLKHLNRAVHEDIVAVELLPKSQWVAPSSVVLHDEGQNEEDVEKEEETERMLKTAVSEKMLKPTGRVVGIIKRNWRPYCGMLSKSDIKESRRHLFTPADKRIPRIRIETRQASTLEGRRIIVAIDGWPRNSRYPNGHFVRNLGDVGEKETETEVLLLEHDVPHQPFSQAVLSFLPKMPWSITEKDMKNREDLRHLCICSVDPPGCTDIDDALHCRELENGNLEVGVHIADVSHFIRPGNALDQESARRGTTVYLCEKRIDMVPELLSSNLCSLKCDVDRLAFSCIWEMNHNAEILKTKFTKSVINSKASLTYAEAQLRIDSANMNDDITTSLRGLNKLAKILKKRRIEKGALTLSSPEVRFHMDSETHDPIDLQTKELRETNSMVEEFMLLANISVAKKIHEEFSEHALLRKHPAPPPSNYEILVKAARSRNLEIKTDTAKSLAESLDQAESPTFPYLNTLLRILATRCMMQAVYFCSGMDNDFHHYGLASPIYTHFTSPIRRYADVIVHRLLAVAIGADCTYPELTDKHKLADICKNLNFRHKMAQYAQRASVAFHTQLFFKSKGIVSEEAYILFVRKNAIVVLIPKYGLEGTVFFEEKDKPNPQLIYDDEIPSLKIEDTVFHVFDKVKVKIMLDSSNLQHQKIRMSLVEPQIPGISIPTDTSNMDLNGPKKKKMKLGK
7 | binds | – | RNA helicase MOV10 (protein, UniProt Q9HCE1 1-1003) MPSKFSCRQLREAGQCFESFLVVRGLDMETDRERLRTIYNRDFKISFGTPAPGFSSMLYGMKIANLAYVTKTRVRFFRLDRWADVRFPEKRRMKLGSDISKHHKSLLAKIFYDRAEYLHGKHGVDVEVQGPHEARDGQLLIRLDLNRKEVLTLRLRNGGTQSVTLTHLFPLCRTPQFAFYNEDQELPCPLGPGECYELHVHCKTSFVGYFPATVLWELLGPGESGSEGAGTFYIARFLAAVAHSPLAAQLKPMTPFKRTRITGNPVVTNRIEEGERPDRAKGYDLELSMALGTYYPPPRLRQLLPMLLQGTSIFTAPKEIAEIKAQLETALKWRNYEVKLRLLLHLEELQMEHDIRHYDLESVPMTWDPVDQNPRLLTLEVPGVTESRPSVLRGDHLFALLSSETHQEDPITYKGFVHKVELDRVKLSFSMSLLSRFVDGLTFKVNFTFNRQPLRVQHRALELTGRWLLWPMLFPVAPRDVPLLPSDVKLKLYDRSLESNPEQLQAMRHIVTGTTRPAPYIIFGPPGTGKTVTLVEAIKQVVKHLPKAHILACAPSNSGADLLCQRLRVHLPSSIYRLLAPSRDIRMVPEDIKPCCNWDAKKGEYVFPAKKKLQEYRVLITTLITAGRLVSAQFPIDHFTHIFIDEAGHCMEPESLVAIAGLMEVKETGDPGGQLVLAGDPRQLGPVLRSPLTQKHGLGYSLLERLLTYNSLYKKGPDGYDPQFITKLLRNYRSHPTILDIPNQLYYEGELQACADVVDRERFCRWAGLPRQGFPIIFHGVMGKDEREGNSPSFFNPEEAATVTSYLKLLLAPSSKKGKARLSPRSVGVISPYRKQVEKIRYCITKLDRELRGLDDIKDLKVGSVEEFQGQERSVILISTVRSSQSFVQLDLDFNLGFLKNPKRFNVAVTRAKALLIIVGNPLLLGHDPDWKVFLEFCKENGGYTGCPFPAKLDLQQGQNLLQGLSKLSPSTSGPHSHDYLPQEREGEGGLSLQVEPEWRNEL
